Laboratory results from the CheMixHub viscosity set.
This continues a long series; more values of the same kind are listed elsewhere.

Experiment: xn = mol fraction of the nth substance listed
Conditions: 318.15 K, 101.33 kPa

CC(N)CN (centres undefined) + OCCCCO
Conditions	viscosity [mPa·s]
x2 = 0.2606	4.01
x2 = 0.3069	5.24
x2 = 0.3541	6.72
x2 = 0.4022	8.58
x2 = 0.4513	10.55
x2 = 0.5013	13.95
x2 = 0.5523	16.78
x2 = 0.6043	21.01
x2 = 0.6574	23.69
x2 = 0.7116	27.62
x2 = 0.7669	29.89
x2 = 0.8233	31.77
x2 = 0.881	32.25
x2 = 0.9399	32.15
